Data taken from paper PMC12040169 (PLOS Biology, 2025).
This is one part of the list.

These compounds were tested on T1, C. trachomatis L2/434/Bu expressing GFP (CTL2-GFP). Conditions: total inclusion area; 28.5 h, 10 µM; inhibitor.
T1 construct: L2/434/Bu GFP intracellular growth in HeLa cells
Set-up: species or system HeLa; C. trachomatis total inclusion area by high-content imaging, normalised to DMSO
Procedure, shortened: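 High-content imaging followed the bulk GFP/resorufin measurement: fixed, Hoechst-stained cells were scored for GFP inclusions and host nuclei per well. Total inclusion area and count served as growth proxies, nuclei number as the viability proxy. MIC calculation matched the bulk assay.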

Going from `O=C(COc1ccc2c(c1)OCO2)N1CCN(Cc2ccccc2)CC1` [CBK269977] to `O=C(Cc1ccsc1)N1CCC2(CCN(Cc3ccccc3)CC2)C1` [CBK136742], the “% of control remaining” value falls from 103.308 to 91.3009.

Compared with `Cc1cc(C)nc(CCNCc2c(C(C)C)nn(C)c2N(C)C)n1` [CBK305159], `CCOC(=O)CSc1nc(C)cc(Oc2ccc(=O)n(C)n2)n1` [CBK269476] is higher in “% of control remaining” value: 81.7671 for the first, 82.2899 for the second.

First: COc1ccc(CCNC(=O)c2nc3ncccn3n2)cc1OC [CBK268795]
Second: COc1ccc(OCCNC(=O)c2ccc(C)nc2NCCCn2ccnc2)cc1 [CBK076385]
The “% of control remaining” value of the first is higher: 134.446 for the first, 93.0256 for the second.

Going from `CCCCCc1ccc(S(=O)(=O)N2CCN(C(=O)C3CCCO3)CC2)cc1` (stereo not shown) [CBK044329] to `CC1CCN(S(=O)(=O)c2ccc(S(=O)(=O)Nc3ncnn3C)cc2)CC1` [CBK306470], the “% of control remaining” value falls from 91.9889 to 43.6366.

Compared with `CC1(NC(=O)c2cccc(OCCN3CCCC3=O)c2)CCC1` [CBK281602], `CCOc1cc(OCC)cc(C(=O)N2CCC3(CC2)NC(=O)c2ccc(C)cc2O3)c1` [CBK166215] is lower in “% of control remaining” value: 95.4016 for the first, 83.663 for the second.

Going from `Cc1ccc(CN(CC2CCOC2)C2CC(C)(C)NC(C)(C)C2)o1` (stereo not shown) [CBK283174] to `C/C(=C\C(=O)NC1CC(C)(C)NC(C)(C)C1)NC1CC(C)(C)NC(C)(C)C1` [CBK261982], the “% of control remaining” value rises from 71.052 to 108.908.

First: Cn1c(Cc2csc(NC(=O)c3ccc(Cl)cc3F)n2)n[nH]c1=S [CBK296635]
Second: COCCn1c(=O)[nH]c2ncc(-c3ccsc3)nc21 [CBK064156]
The “% of control remaining” value of the first is higher: 85.3925 for the first, 71.2519 for the second.

Going from `c1cnn(CC2CCCCN2c2ncnc3sccc23)c1` (stereo not shown) [CBK304969] to `c1cnn(C2CCN(Cc3ccc(Oc4cnccn4)cc3)CC2)c1` [CBK306417], the “% of control remaining” value rises from 54.5127 to 60.2682.

Compared with `O=C(Nc1ccc2[nH]ccc2c1)c1ccc(OC(F)(F)F)cc1` [CBK159688], `COCCCNC(=O)Cn1cccc2cc(-c3ccc(F)cc3)nc1-2` [CBK284834] is higher in “% of control remaining” value: 39.4069 for the first, 113.761 for the second.

Going from `Cc1nc2c(C(=O)NCC3OCCO3)cnn2c(C)c1Cc1ccc(Br)cc1` [CBK167467] to `Cc1cc(C)c2oc(-c3cccc(NC(=O)c4cccc(Cl)c4Cl)c3C)nc2c1` [CBK264005], the “% of control remaining” value rises from 84.4151 to 103.296.

Compared with `CC(=O)Nc1cccc(C(=O)N(Cc2ccccc2)Cc2ccccc2)c1` [CBK269295], `O=C(O)CCC(=O)Nc1ccccc1Sc1ccc(Cl)cc1` [CBK287015] is lower in “% of control remaining” value: 106.299 for the first, 100.612 for the second.

Going from `O=C(O)c1cnc2ccc(F)cc2c1N1CCOCC1` [CBK287851] to `CC(C)[C@@H](CO)n1c(=O)[nH]c2ncc(-c3ccc(N4CCOCC4)cc3)nc21` [CBK064770], the “% of control remaining” value rises from 80.4686 to 130.085.

First: COc1nc2nonc2nc1OC [CBK028544]
Second: COc1cccc(-c2noc(Cn3cnc4sccc4c3=O)n2)c1 [CBK297127]
The “% of control remaining” value of the first is lower: 41.6083 for the first, 85.5231 for the second.

First: COC1CCCC(C(=O)N2CCCC2c2nc3ccccc3[nH]2)C1 (stereo not shown) [CBK284007]
Second: O=C(NC1CCCCC1)N[C@H]1[C@H](O)[C@@H](N2CCN(c3ccccc3)CC2)[C@@H]2OC[C@H]1O2 [CBK288822]
The “% of control remaining” value of the first is lower: 74.3393 for the first, 124.26 for the second.

Compared with `O=C(CSCCO)Nc1cccc2ccccc12` [CBK265623], `O=C(Cn1cc(Br)ccc1=O)NC1CCCN(Cc2ccccc2)C1` (stereo not shown) [CBK305668] is lower in “% of control remaining” value: 109.977 for the first, 106.298 for the second.

First: CC1CCn2c3c(c4cccc1c42)CCNCC3 (stereo not shown) [CBK018012C]
Second: COc1cccc2c3c([nH]c12)CCCC3 [CBK000331]
The “% of control remaining” value of the first is lower: 35.7751 for the first, 94.8234 for the second.

Going from `NNc1nc(-c2ccc(Br)cc2)nc2ccccc12` [CBK262860] to `CS(=O)(=O)c1ccc(-c2cnc(N)c3ncccc23)cc1` [CBK067593], the “% of control remaining” value rises from 86.7365 to 104.36.

Going from `Nc1ncnc2sc3c(c12)CCN(C(=O)c1ccc2nccnc2c1)C3` [CBK295588] to `CC1CCc2sc3ncnc(N4CCN(CCOC(c5ccccc5)c5ccccc5)CC4)c3c2C1` (stereo not shown) [CBK264884], the “% of control remaining” value rises from 98.9635 to 117.101.

Going from `Cc1ccc2[nH]c3c(c2c1)CCN(C=O)C31CCN(Cc2ccc(OC(F)F)cc2)CC1` [CBK040438] to `Cc1ccc(S(=O)(=O)Nc2c(C(=O)O)[nH]c3ccccc23)cc1` [CBK049880], the “% of control remaining” value rises from 84.4013 to 88.3531.

Compared with `Cc1ccc(N2C(=O)N[C@@H]3CCN(C(=O)c4ccc(C(C)(C)C)cc4)[C@@H]3C2=O)cc1` [CBK289284], `Cc1ccc(S(=O)(=O)N(C)c2c(C)ccc(S(=O)(=O)N3CCN(C)CC3)c2C)cc1` [CBK265642] is lower in “% of control remaining” value: 108.548 for the first, 104.346 for the second.

Compared with `Cn1c(C2CC(=O)N(c3ccc(Cl)cc3)C2)nc2ccccc21` (stereo not shown) [CBK287783], `CC(C)(CSc1nnc(Nc2ccccc2)s1)NS(=O)(=O)c1ccc(Cl)cc1` [CBK266388] is lower in “% of control remaining” value: 94.5974 for the first, 91.3777 for the second.

Going from `COc1ccc(NC(=O)CCC(=O)O)c(OC)c1` [CBK265451] to `COc1cc(C=C2SC(NCC(=O)O)=NC2=O)ccc1OCc1ccc(Cl)cc1Cl` [CBK297555], the “% of control remaining” value falls from 84.446 to 35.5148.

Compared with `CN(C)CCCNC(=S)NC(=O)c1ccccc1` [CBK265317], `O=C(NC(Cc1cnc[nH]1)C(=O)O)c1ccccc1` (stereo not shown) [CBK059018] is higher in “% of control remaining” value: 93.1069 for the first, 118.141 for the second.

Going from `CCn1ncc(S(=O)(=O)Nc2ccc3c(ccn3C)c2)c1C` [CBK282730] to `O=S(=O)(c1ccc(F)c(Cl)c1)n1ccc2c(N3CCNCC3)nccc21` [CBK059059C], the “% of control remaining” value falls from 103.958 to 61.2215.

Compared with `CCC(C)NC(=O)Cn1c(C2CCOCC2)cc2cc(C)cnc21` (stereo not shown) [CBK284756], `CN1CCN(c2cc(-c3ccccc3N(C)C)nc3ccnn23)CC1` [CBK037158] is lower in “% of control remaining” value: 101.61 for the first, 82.4864 for the second.

Going from `O=C(c1cscn1)N1C2CCC1CC(O)(c1ccco1)C2` (stereo not shown) [CBK284135] to `FC(F)(F)c1nnc2ccc(-n3ccnc3)nn12` [CBK020041], the “% of control remaining” value falls from 78.5989 to 77.6564.
